Laboratory results as given in PubChem BioAssay AID1508642 (National Center for Advancing Translational Sciences (NCATS), 2021).
Hit rate of the full screen: of about 43,000 compounds, about 200 (0.47%) were called active. Inconclusive results (about 12%) are left out. The call rests on the fitted dose curve; in most records, active means well fitted cell-killing curve with a large enough effect; inconclusive means small, poorly fitted or top-dose-only effect, or effect the other way; inactive means flat fitted curve, though single readings scatter. This is one part of the list.

Test: Cell viability qHTS assay in S16 Pmp22-F2sN cells; further: nearly all actives have a fitted effect of over 65% in size
Conditions: S16 Pmp22-F2sN Schwann cells viability, CellTiter-Glo, 24 h; series mostly up to 57.5 µM; activity change, negative = cytotoxicity: at the top concentration
Method in brief: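 S16 Pmp22-F2sN Schwann cells (500-1,000/well) in phenol-red-free DMEM with 10% FBS received 23 nL compound by pin tool for 24 h at 37 °C. Viability was then read as CellTiter-Glo luminescence after 15 min at room temperature.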
On the % scale 0 is the no-effect control and ±100 the full control effect.

**Q.** With CCOc1ccc(NS(=O)(=O)c2ccc3[nH]cc(C(=O)NCCOC)c(=O)c3c2)cc1 as the compound, how does the “activity change, negative = cytotoxicity” value read?
**A.** inactive: 9.74%

**Q.** With CN(C)CCNC(=O)CCCn1c(=O)c2cccn2c2ccccc21 as the compound, how does the “activity change, negative = cytotoxicity” value read?
**A.** inactive: 14%

**Q.** With Cc1ccc(Cl)cc1N(C)C(=O)c1noc2c1CCCCC2 as the compound, how does the “activity change, negative = cytotoxicity” value read?
**A.** inactive: 1.93%

**Q.** For COc1ccccc1NC(=O)C1=C(C)Nc2nc(SCC(=O)c3ccc(C)cc3)nn2C1c1ccccc1C (stereo not drawn), which “activity change, negative = cytotoxicity” value is on record?
**A.** inactive: -4.36%

**Q.** For CSCCC(NS(=O)(=O)c1ccc2c(c1)oc(=O)n2C)C(=O)NCc1ccc(F)cc1 (stereo not drawn), which “activity change, negative = cytotoxicity” value is on record?
**A.** inactive: 14.2%

**Q.** With COc1ccc(-n2cc(C(=O)N(C)c3cc(C)ccc3OC)c3ccccc3c2=O)cc1 as the compound, how does the “activity change, negative = cytotoxicity” value read?
**A.** inactive: 0.178%

**Q.** With Cc1nn(Cc2noc(C(=O)NCc3cccc(F)c3)n2)c(C)c1Br as the compound, how does the “activity change, negative = cytotoxicity” value read?
**A.** inactive: 3.47%

**Q.** For CCN1C(=O)C2(c3ccccc31)c1c(oc3ccc(C)cc3c1=O)C(=O)N2CCCOC(C)C (stereo not drawn), which “activity change, negative = cytotoxicity” value is on record?
**A.** inactive: 8.41%

**Q.** For Cc1cc2ccccc2n1CCNC(=O)c1ccc(F)cc1, which “activity change, negative = cytotoxicity” value is on record?
**A.** inactive: 14%

**Q.** Which “activity change, negative = cytotoxicity” value does the source give for Cc1cc(O)c(C(c2ccc(Cl)cc2)N2CCN(c3ccccc3)CC2)c(=O)n1Cc1ccco1 (stereo not drawn) here?
**A.** inactive: 1.5%

**Q.** With CC1=C(c2ccc(C)cc2)S(=O)(=O)N(Cc2ccc(C(=O)Nc3ccccc3C)cc2)C1=O as the compound, how does the “activity change, negative = cytotoxicity” value read?
**A.** inactive: 0.502%

**Q.** Which “activity change, negative = cytotoxicity” value does the source give for COc1ccc(CCn2c(=O)[nH]c3cc(C(=O)N4CCN(c5ccccc5)CC4)ccc3c2=O)cc1OC here?
**A.** inactive: 0.232%

**Q.** With CCOc1ccccc1NC(=O)n1ncc2cc(Cl)ccc21 as the compound, how does the “activity change, negative = cytotoxicity” value read?
**A.** inactive: -11.1%

**Q.** For COCCNC(=O)CCCN1C(=O)CCn2nc(-c3cccn3C)cc21, which “activity change, negative = cytotoxicity” value is on record?
**A.** inactive: -0.503%

**Q.** With Cc1ccc(CCNC(=O)c2ccc(CS(=O)(=O)c3ccc(Cl)cc3)o2)cc1 as the compound, how does the “activity change, negative = cytotoxicity” value read?
**A.** inactive: -8.65%

**Q.** With O=C(c1ccccc1F)N1CCC(c2nc3c(nnn3Cc3cccc(F)c3)c(=O)[nH]2)CC1 as the compound, how does the “activity change, negative = cytotoxicity” value read?
**A.** inactive: 0.299%

**Q.** With Cc1oc(-c2ccc(C(=O)NC(C)c3ccccc3)cc2)nc1CS(=O)(=O)c1ccccc1 (stereo not drawn) as the compound, how does the “activity change, negative = cytotoxicity” value read?
**A.** inactive: -8.04%

**Q.** Which “activity change, negative = cytotoxicity” value does the source give for COC(=O)c1ccccc1NC(=O)CCCN1C(=O)C(c2ccccc2)Oc2cccnc21 (stereo not drawn) here?
**A.** inactive: 18.1%

**Q.** With COc1ccc(NC(=O)Cn2c(=O)oc3cc(S(=O)(=O)N4CCCCC4C)ccc32)cc1 (stereo not drawn) as the compound, how does the “activity change, negative = cytotoxicity” value read?
**A.** inactive: -18.1%

**Q.** Which “activity change, negative = cytotoxicity” value does the source give for CCCOc1ccc(C(=O)Nc2ccc3nn(-c4ccc(OC)c(Cl)c4)nc3c2)cc1 here?
**A.** inactive: -3.74%

**Q.** For COc1cccc2c1Oc1nc(-c3ccccc3)nc(SCC(=O)Nc3ccccc3)c1C2, which “activity change, negative = cytotoxicity” value is on record?
**A.** inactive: 8.37%

**Q.** Which “activity change, negative = cytotoxicity” value does the source give for CCOc1ccc(-c2nnc(SCC(=O)Nc3cc(F)ccc3F)o2)cc1 here?
**A.** inactive: -14.4%

**Q.** With COc1ccc(CCNC(=O)c2ccc3nc(Cc4ccccc4)oc3c2)cc1OC as the compound, how does the “activity change, negative = cytotoxicity” value read?
**A.** inactive: -1.99%

**Q.** Which “activity change, negative = cytotoxicity” value does the source give for Nc1nonc1-c1nc2ccccc2n1Cc1c(Cl)cccc1Cl here?
**A.** inactive: 25.7%

**Q.** For COc1ccc(N(CC(=O)NCCc2ccccc2)S(=O)(=O)c2ccc(OC)c(OC)c2)cc1, which “activity change, negative = cytotoxicity” value is on record?
**A.** inactive: -5.05%

**Q.** Which “activity change, negative = cytotoxicity” value does the source give for O=C(C1CCCN(S(=O)(=O)c2cccc3nonc23)C1)N1CCN(c2ccccc2Cl)CC1 (stereo not drawn) here?
**A.** inactive: -13.1%

**Q.** With COc1ccc(NC(=O)c2cnn(-c3ccc(F)cc3F)c2C2CCN(C(=O)OC(C)(C)C)CC2)cc1Cl as the compound, how does the “activity change, negative = cytotoxicity” value read?
**A.** inactive: -21.2%

**Q.** Which “activity change, negative = cytotoxicity” value does the source give for COc1ccc(CNC(=O)c2ccc(NC(=O)N3CCSc4ncccc43)cc2)cc1OC here?
**A.** inactive: -0.367%

**Q.** Which “activity change, negative = cytotoxicity” value does the source give for CCOC(=O)c1c(NC(=O)CCCOc2ccc(Cl)cc2)sc2c1CCC2 here?
**A.** inactive: -13.5%

**Q.** With COc1ccc(OC)c(-c2noc(N3CCN(c4ccc(C(C)=O)cc4)CC3)n2)c1 as the compound, how does the “activity change, negative = cytotoxicity” value read?
**A.** inactive: -11.1%

**Q.** For COc1ccc(-c2oc3ncn4nc(COc5ccc(C)cc5)nc4c3c2-c2ccc(OC)cc2)cc1, which “activity change, negative = cytotoxicity” value is on record?
**A.** inactive: 5.98%

**Q.** Which “activity change, negative = cytotoxicity” value does the source give for CCOC(=O)Cn1c(=O)oc2cc(S(=O)(=O)N3CCN(c4ccccc4OC)CC3)ccc21 here?
**A.** inactive: 3.56%

**Q.** With O=C(NCCc1csc2nc(-c3ccccc3F)nn12)c1ccccc1C(F)(F)F as the compound, how does the “activity change, negative = cytotoxicity” value read?
**A.** inactive: -3.08%

**Q.** With COc1cccc(CN(C(=O)c2ccc(C(C)(C)C)cc2)C2CCS(=O)(=O)C2)c1 (stereo not drawn) as the compound, how does the “activity change, negative = cytotoxicity” value read?
**A.** inactive: -2.07%

**Q.** Which “activity change, negative = cytotoxicity” value does the source give for CCOC(=O)c1cc(-c2ccc(OC)c(S(=O)(=O)NCc3ccccc3Cl)c2)on1 here?
**A.** inactive: 2.04%

**Q.** For CC1CCCCN1CCCNC(=O)CN1C(=O)CSc2ccc(S(=O)(=O)N3CCOCC3)cc21 (stereo not drawn), which “activity change, negative = cytotoxicity” value is on record?
**A.** inactive: 23.9%

**Q.** With CCc1ccc(NC(=O)Nc2ccccc2OCc2cc(=O)n3ccccc3n2)cc1 as the compound, how does the “activity change, negative = cytotoxicity” value read?
**A.** inactive: 0.166%

**Q.** For COc1ccc(OC)c(NC(=O)Cn2ccn(-c3ccc(OC)c(OC)c3)c(=O)c2=O)c1, which “activity change, negative = cytotoxicity” value is on record?
**A.** inactive: 2.44%

**Q.** With CCCNC(=O)CSc1c(CCC)cnc2c1c(=O)n(C)c(=O)n2C as the compound, how does the “activity change, negative = cytotoxicity” value read?
**A.** inactive: 11.8%

**Q.** With CCCCNc1ccc(-c2nc(-c3ccccn3)no2)cc1[N+](=O)[O-] as the compound, how does the “activity change, negative = cytotoxicity” value read?
**A.** inactive: 0.377%

**Q.** Which “activity change, negative = cytotoxicity” value does the source give for COc1ccc(-c2nnn3c2nc(NCc2ccc(C)cc2)c2ccccc23)cc1 here?
**A.** inactive: 9.4%

**Q.** Which “activity change, negative = cytotoxicity” value does the source give for Cc1cc(C)c(NC(=O)C(C)n2c(=O)cc(-c3ccccc3)c3c(C)nn(C)c32)c(C)c1 (stereo not drawn) here?
**A.** inactive: 4.72%

**Q.** For Cc1ccccc1C(=O)OCc1cc(=O)n2nc(C3CCCCC3)sc2n1, which “activity change, negative = cytotoxicity” value is on record?
**A.** inactive: -23.3%

**Q.** For Cc1nnc2c(N3CCN(c4ccc(F)cc4)CC3)nc3ccc(C(=O)c4ccccc4)cc3n12, which “activity change, negative = cytotoxicity” value is on record?
**A.** inactive: -2.09%

**Q.** With O=C(CN1C(=O)C2(SCC(=O)N2c2cccc(F)c2)c2ccccc21)NCCc1ccccc1 (stereo not drawn) as the compound, how does the “activity change, negative = cytotoxicity” value read?
**A.** inactive: -17.9%

**Q.** For O=C(NCCc1csc(-c2cccnc2)n1)c1ccccc1, which “activity change, negative = cytotoxicity” value is on record?
**A.** inactive: -1.65%

**Q.** Which “activity change, negative = cytotoxicity” value does the source give for CCOC(=O)c1cnc(N2CCN(c3cccc(C)c3C)CC2)c2ccccc12 here?
**A.** inactive: 2.87%

**Q.** Which “activity change, negative = cytotoxicity” value does the source give for Cc1cccc(C(=O)NC2(C(F)(F)F)N=C(c3ccccc3)N(C3CCCCC3)C2=O)c1 (stereo not drawn) here?
**A.** inactive: 4.78%
